Experimental data from the supplement of paper PMC10126150.
Sequences with one replicate were seen in a single cluster, so their values are uncertain.

Tested on: ATP
Assay: switch fluorescence ratio, 500 uM ATP over buffer (Cy3 cluster intensity, sum of 5 cycles each) (fold (ratio)); higher = stronger signal-on switching upon ATP binding; sequences stand for … in TCGTCGGCAGCGTCAGATGTGTATAAGAGACAGTTTTTTTTTTTTTTTTTTTTTTTTT…TC
Conditions: aptamer strand: ATP DNA aptamer (quencher-CACCTGGGGGAGTATTGCGGAGGAAGG + anchor), 100 nM annealed; ATP concentration: 500 uM; one replicate
Outline: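 Cy3-labelled switching-strand clusters on a modified Illumina MiSeq flow-cell were annealed to 100 nM quencher-labelled ATP aptamer, imaged in selection buffer, then imaged after 15 min with 500 uM ATP at 22 °C. Five buffer/ATP cycles ran, with NaOH stripping and re-annealing between them. The fluorescence ratio is summed target-cycle over summed buffer-cycle Cy3 intensity per cluster, averaged per switch-domain sequence. Clusters outside 100-1000 RFU were excluded.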
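Also: ATP exposure 15 min at 22 °C before imaging.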

Row | Sequence | switch fluorescence ratio
1 | GGGGTGCCT | 0.994
2 | CGTCGATCCG | 0.915
3 | CTTCTACACC | 1.07
4 | GTAGGGTT | 0.955
5 | GTTGTGTCTC | 1
6 | ATGAAAAACT | 1
7 | CGTAGCGGAC | 4.4
8 | ACTTTAGATA | 0.995
9 | TATCCCGAAA | 1.17
10 | AACGAGAATA | 0.986
11 | AGAAGCGAAA | 1
12 | TGTTAAATCT | 0.988
13 | GTTGGGTCCA | 0.986
14 | GCAAATGCGC | 1.06
15 | CGCCTGAACT | 1.05
16 | ACAGGTATGT | 1.01
17 | GTCTTACTGT | 0.96
18 | CGAATGTTGA | 0.976
19 | ATAAGATAAT | 0.989
20 | GACAGAATTC | 0.98
21 | CACGAGTTTA | 1.01
22 | CGGGGCCGAC | 0.975
23 | TATACTCTG | 1.05
24 | AAAGACTCTG | 1.05
25 | GGCGCATTTG | 1.07
26 | CAGGTGCTCG | 1.02

Row | Sequence | switch fluorescence ratio
27 | CATATAACAT | 1.02
28 | TTAATCGTCA | 0.982
29 | AGGCGAGTTC | 0.968
30 | TAGCATTCCG | 0.975
31 | GGAAAGGCAG | 0.995
32 | ATAGCCCCAA | 1.07
33 | AGGACTTCTA | 1.05
34 | GGGGCTCTGG | 0.974
35 | GTGTTACGAT | 1.01
36 | TCTTTACAT | 1.02
37 | AGTTGTATCC | 0.977
38 | ACTTACAAGA | 1.18
39 | GAATGGTTCA | 1.04
40 | CCATGGAAGC | 1.02
41 | GGGATCTCAC | 1.01
42 | TAGAGTTAT | 0.963
43 | GGCTGCGGGG | 0.98
44 | ATCTATTCTT | 1.01
45 | GATTCAGCCG | 0.995
46 | TGCTTGCATG | 0.955
47 | ATCCGCTGAG | 2.4
48 | GCGACATAA | 1.05
49 | CATGGTAGAA | 1.02
50 | AGGCCGCGTA | 1.02
51 | TCTTAGTCG | 1
52 | GTTACGGGAA | 1.02

Row | Sequence | switch fluorescence ratio
53 | CTTGCCCGGG | 1.07
54 | TCAGACGGGT | 0.958
55 | ATATGTGAGT | 0.992
56 | TTCACTCGCG | 1.03
57 | CAAAAAATCA | 1.02
58 | AAAGCTAAGT | 0.991
59 | GAGCACAAGG | 1.08
60 | ATATTGGACA | 1.05
61 | GTTCATTGAT | 0.992
62 | GAATCTGAAC | 1.08
63 | CAAACCCTGC | 1.15
64 | CTCTCACCAA | 1.37
65 | ACCCGTGTCA | 0.974
66 | AGCACAGTGT | 1.04
67 | TAAGGGATTT | 0.985
68 | AACATTAGTT | 1.01
69 | AACTTGCGAT | 1.05
70 | GCAATATAGG | 1.24
71 | AGGGTGGACC | 1.02
72 | TCCCGTTCG | 1.14
73 | AGGTGGAGTC | 0.985
74 | AGAAAGAGAC | 1.02
75 | TTTTGCGCGG | 0.991
76 | ACTTGTACAC | 1.23
77 | GGATGTCTGA | 1.01
78 | AGTAAAAGAT | 0.992

Row | Sequence | switch fluorescence ratio
79 | CCTCGTAAAA | 1.03
80 | AGTATGGGTG | 0.999
81 | CTTCGGAAT | 3.92
82 | GTCTTTCGTC | 0.988
83 | CCTTCCCGTT | 1.5
84 | CACATATT | 1.07
85 | ATCAATCGT | 1.01
86 | ATCACCGATA | 1.08
87 | GTGTTAAACT | 0.959
88 | TGTAATCGTG | 0.986
89 | TTAACCTGAT | 1.2
90 | AAGATACAGG | 1.07
91 | GGGTTCTACT | 1.01
92 | TGCCATGCGA | 1.01
93 | TTCAACAGGG | 1.15
94 | AACAATTTCC | 1.16
95 | CTCCGTCTTC | 1.11
96 | CCGCTGAGGA | 1.23
97 | GATGCATTT | 0.946
98 | ACTCTTTAT | 0.998
99 | GACTGTGGGA | 0.993
100 | TATCTAGCTT | 1.03
101 | GAGTGATTGA | 1.02
